The source of these data is publication PMC4336329 (PLoS ONE, 2015).

Molecules are shown by their SMILES. Hit rate of the full screen: of about 310,000 compounds, about 2,200 (0.71%) showed an effect of 50% or more. The effect is printed as a negative number. The list shows a part of the results.

Chain of human ether-à-go-go-related gene (hERG) potassium channel (Q12809 whole entry, looked up): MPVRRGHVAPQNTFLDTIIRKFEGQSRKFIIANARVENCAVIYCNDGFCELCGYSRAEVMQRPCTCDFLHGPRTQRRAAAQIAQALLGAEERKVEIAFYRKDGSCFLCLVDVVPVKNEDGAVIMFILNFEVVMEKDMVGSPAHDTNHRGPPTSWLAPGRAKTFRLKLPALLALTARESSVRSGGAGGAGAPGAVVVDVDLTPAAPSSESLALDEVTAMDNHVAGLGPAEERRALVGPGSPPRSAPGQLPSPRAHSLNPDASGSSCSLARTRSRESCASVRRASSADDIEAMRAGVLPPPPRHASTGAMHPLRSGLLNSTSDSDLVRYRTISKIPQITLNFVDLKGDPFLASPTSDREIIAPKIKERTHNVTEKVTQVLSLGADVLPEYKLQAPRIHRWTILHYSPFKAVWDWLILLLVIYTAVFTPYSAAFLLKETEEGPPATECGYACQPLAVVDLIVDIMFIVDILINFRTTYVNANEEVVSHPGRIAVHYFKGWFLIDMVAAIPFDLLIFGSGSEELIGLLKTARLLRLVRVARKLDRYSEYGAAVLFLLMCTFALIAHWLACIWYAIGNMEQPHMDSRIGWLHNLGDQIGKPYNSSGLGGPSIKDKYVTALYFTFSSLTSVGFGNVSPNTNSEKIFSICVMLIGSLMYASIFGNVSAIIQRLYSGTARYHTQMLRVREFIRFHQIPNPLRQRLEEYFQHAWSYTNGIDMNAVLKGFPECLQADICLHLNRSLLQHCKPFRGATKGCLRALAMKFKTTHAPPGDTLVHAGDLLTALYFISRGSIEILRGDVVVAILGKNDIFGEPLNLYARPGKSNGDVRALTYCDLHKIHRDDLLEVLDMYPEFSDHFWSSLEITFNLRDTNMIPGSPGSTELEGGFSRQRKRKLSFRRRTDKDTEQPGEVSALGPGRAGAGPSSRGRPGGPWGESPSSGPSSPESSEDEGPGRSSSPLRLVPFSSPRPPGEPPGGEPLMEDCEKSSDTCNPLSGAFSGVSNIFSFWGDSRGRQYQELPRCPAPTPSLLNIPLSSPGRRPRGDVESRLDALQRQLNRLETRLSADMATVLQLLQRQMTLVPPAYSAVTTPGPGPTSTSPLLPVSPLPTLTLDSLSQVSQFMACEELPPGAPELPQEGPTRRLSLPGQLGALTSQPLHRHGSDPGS

The test has as its target human ether-à-go-go-related gene (hERG) potassium channel (human, UniProt Q12809). The test is described as follows: primary screen, population patch clamp on CHO cells stably expressing hERG.
With `CC1=NN(c2ccccc2)C(=O)C1`, the “hERG current change (%, negative = inhibition) at 1uM” value worked out at 28.7%.

Turning to `Cc1cccc(C)c1NC(=O)C1(N(Cc2ccco2)C(=O)Cn2nnnc2N)CCCCC1`, the “hERG current change (%, negative = inhibition) at 1uM” value turned out to be 9.09%.

Consider `COc1ccc(N2CCC(CNC(=O)Nc3ccccc3)C2)cc1` (stereo not drawn), for which the “hERG current change (%, negative = inhibition) at 1uM” value was 2.4%.

For the compound `N#Cc1c(N)c(C(=O)c2ccccc2)n2c1CCCC2`, the “hERG current change (%, negative = inhibition) at 1uM” value was determined as 1.07%.

Take `O=C1NC(=O)C(=Cc2ccc(Oc3ccc([N+](=O)[O-])cc3)cc2)C(=O)N1`: the “hERG current change (%, negative = inhibition) at 1uM” value is -7.79%.

`O=C(Cn1c(=O)c2cccn2c2ccccc21)Nc1ccc(F)cc1F`: the “hERG current change (%, negative = inhibition) at 1uM” value is reported as 19.1%.

Take `COc1cccc2sc(NC(=O)c3ccc(S(=O)(=O)N4CCOCC4)cc3)nc12`: the “hERG current change (%, negative = inhibition) at 1uM” value stood at 10.5%.

`N#C/C(=C\c1ccc(OCc2ccc(C(=O)O)cc2)cc1)C(=O)NCc1ccccc1`: the “hERG current change (%, negative = inhibition) at 1uM” value is given as 11.1%.

For the compound `CNc1c(NS(=O)(=O)c2ccc(Br)cc2)c(=O)oc2ccccc12`, the “hERG current change (%, negative = inhibition) at 1uM” value is 11.1%.

Turning to `O=c1ccc2cc(S(=O)(=O)Nc3ccccc3F)ccc2o1`, the “hERG current change (%, negative = inhibition) at 1uM” value is 10.6%.

On to `COC(=O)C(Cc1ccccc1)NCC(=O)Nc1cccc(Cl)c1C` (stereo not drawn), for which the “hERG current change (%, negative = inhibition) at 1uM” value came to 4.66%.

For the compound `CCOC(=O)c1cnn(-c2cc(Oc3cccc(C)c3)ncn2)c1N`, the “hERG current change (%, negative = inhibition) at 1uM” value is 8.49%.

For `CN(Cc1ccc(Cl)s1)C(=O)CNC(=O)CNC(=O)c1ccc(Cl)cc1Cl`, the “hERG current change (%, negative = inhibition) at 1uM” value was -18.6%.

In the case of `Cc1ccc(C(=O)OCC2OC3OC(C)(C)OC3C2O)cc1` (stereo not drawn), the “hERG current change (%, negative = inhibition) at 1uM” value is given as 10.6%.

Turning to `CCOC(=O)C1=C(Nc2cccc(Cl)c2)OCC1=O`, the “hERG current change (%, negative = inhibition) at 1uM” value is recorded as 1.09%.

For the compound `Cc1ccc(-n2c(N)c(C(=O)Nc3c(C)n(C)n(-c4ccccc4)c3=O)c3nc4ccccc4nc32)cc1C`, the “hERG current change (%, negative = inhibition) at 1uM” value was 10.7%.

For the compound `CC/C(O)=C1\C(=O)CCCC1=NCCc1c(C)[nH]c2ccc(C)cc12`, the “hERG current change (%, negative = inhibition) at 1uM” value came out at 0.659%.

For `Cc1cc(NC(=O)COC(=O)c2cccc(S(=O)(=O)N(C)C3CCCCC3)c2)no1`, the “hERG current change (%, negative = inhibition) at 1uM” value is reported as -2.93%.

As to `O=C(NCCCN1CCOCC1)c1ccc([N+](=O)[O-])cc1[N+](=O)[O-]`, the “hERG current change (%, negative = inhibition) at 1uM” value stood at 10.6%.

With `O=C(O)c1cccc(N=NN2CCOCC2)c1`, the “hERG current change (%, negative = inhibition) at 1uM” value is listed as 12.1%.

For `COc1ccc(Nc2nc(N)nc(C(F)(F)F)n2)c(OC)c1`, the “hERG current change (%, negative = inhibition) at 1uM” value turned out to be 9.6%.

Regarding `COc1ccc(S(=O)(=O)NCCC(C)C)cc1OC`, the “hERG current change (%, negative = inhibition) at 1uM” value was 7.71%.

Consider `Cc1cc(Cl)nc(-n2nc(C)cc2C)n1`, for which the “hERG current change (%, negative = inhibition) at 1uM” value was found to be 9.18%.

As to `COc1cc2c(cc1OC)C(C)=NC1(CCCCC1)C2.O=C(O)c1ccccc1O`, the “hERG current change (%, negative = inhibition) at 1uM” value came out at 5.69%.

Turning to `Cc1cccc(C)c1NC(=O)CN(C)C(=O)Cc1cccc(C(F)(F)F)c1`, the “hERG current change (%, negative = inhibition) at 1uM” value was found to be 17.7%.

For the compound `Cc1cccc(NC(=O)C2CCN(C(=O)NCc3ccccc3)CC2)c1C`, the “hERG current change (%, negative = inhibition) at 1uM” value is listed as 5.28%.

As to `COc1cc(C2/C(=C(/O)c3ccc(F)cc3)C(=O)C(=O)N2CCCC(=O)O)ccc1O` (stereo not drawn), the “hERG current change (%, negative = inhibition) at 1uM” value stood at 13.5%.

As for `CC(C)(Oc1cccc2ccccc12)C(=O)O`, the “hERG current change (%, negative = inhibition) at 1uM” value stood at 4.41%.

Regarding `COc1ccc(CCNC(=S)NC(=O)c2ccccc2)cc1OC`, the “hERG current change (%, negative = inhibition) at 1uM” value is 8.62%.

For the compound `Cc1cc(NC(=O)c2cc(C3CC3)on2)n(-c2ccccc2)n1`, the “hERG current change (%, negative = inhibition) at 1uM” value is on record as 5.83%.

As for `CCOc1cc(/C=C(/NC(C)=O)C(=O)O)cc(Cl)c1OCc1ccc(Br)cc1`, the “hERG current change (%, negative = inhibition) at 1uM” value was -1.81%.

Regarding `CCOC(=O)C1=NNC(C(=O)c2ccc(C)cc2)C1c1ccc(C)cc1` (stereo not drawn), the “hERG current change (%, negative = inhibition) at 1uM” value is given as 7.94%.

Take `O=C(Nc1sc2c(c1C(=O)c1ccccc1)CCCC2)c1cccnc1`: the “hERG current change (%, negative = inhibition) at 1uM” value is listed as 10.9%.

For the compound `O=C(O)C1c2ccccc2C(=O)N(Cc2ccc(F)cc2)C1c1ccncc1` (stereo not drawn), the “hERG current change (%, negative = inhibition) at 1uM” value is 9.28%.

On to `Cc1cccc(-n2ccnc2SCC(=O)N2CCCc3ccccc32)c1C`, for which the “hERG current change (%, negative = inhibition) at 1uM” value is given as -7.5%.

In the case of `O=C(C1CC(=O)N(c2ccc(F)cc2)C1)N1CCOCC1` (stereo not drawn), the “hERG current change (%, negative = inhibition) at 1uM” value was found to be 13.5%.

Turning to `Cc1cc2c(c(=O)o1)C(CCC1CCCCC1)C(C#N)=C(N)O2` (stereo not drawn), the “hERG current change (%, negative = inhibition) at 1uM” value was found to be 11.2%.

As to `Cc1cccc(OC(C)C(=O)N2CCc3ccccc3C2)c1` (stereo not drawn), the “hERG current change (%, negative = inhibition) at 1uM” value came out at 11%.

With `CC(=O)OCCNc1cc(Sc2nc3ccccc3[nH]2)c2nonc2c1[N+](=O)[O-]`, the “hERG current change (%, negative = inhibition) at 1uM” value was found to be 14.5%.

Consider `COc1ccc(OC)c(-n2c(-c3cccc(S(=O)(=O)N(C)C)c3)n[nH]c2=S)c1`, for which the “hERG current change (%, negative = inhibition) at 1uM” value worked out at 8.42%.

On to `O=C(C1=C(O)C(=O)N(Cc2ccco2)C1c1ccccc1)c1cccs1` (stereo not drawn), for which the “hERG current change (%, negative = inhibition) at 1uM” value turned out to be 14.1%.

Turning to `CC(C)(C)NC(=O)COC(=O)CCC(=O)c1ccc(F)cc1`, the “hERG current change (%, negative = inhibition) at 1uM” value is given as 11.7%.

Consider `CCC(C)(C)c1ccc(OCCCC[n+]2ccccc2)c(C(C)(C)CC)c1.[Br-]`, for which the “hERG current change (%, negative = inhibition) at 1uM” value is reported as -28.5%.

As for `CCC(C)NC(=O)CCNS(=O)(=O)c1ccc(Br)cc1` (stereo not drawn), the “hERG current change (%, negative = inhibition) at 1uM” value turned out to be 4.07%.

With `C=CCN1C(=O)/C(=C/c2ccc(Br)s2)C(=O)NC1=S`, the “hERG current change (%, negative = inhibition) at 1uM” value stood at 2.47%.
